Measured values from PubChem BioAssay (NCATS).
The inconclusive results got no clear call from the source; some entries with a clear call stand among them for comparison. No potency is given beside an inconclusive call; the fits are too rough. Active and inactive are the calls of the source. Unless noted, calls follow the shape of the dose curve; as a rule, active = well fitted curve in the direction sought with a large enough effect in the repeat runs; inconclusive = weak or mixed curves; inactive = no such curve, though single readings can be large; an effect the other way counts as inactive or inconclusive.

Columns and labels:
[1] = target: Cytochrome P450 2D6 (Homo sapiens) (UniProt P10635); assay: Cytochrome P450 family 2 subfamily D member 6 (CYP2D6) small molecule antagonists: luciferase biochemical (cell-free) qHTS assay (AID 1645840); conditions: P450-Glo CYP2D6 enzyme, luciferin luminescence, 1 h; series mostly up to 57.4 µM; also: nearly all actives have a fitted effect of over 55% in size
Chain of UniProt P10635 (P10635 whole entry, looked up): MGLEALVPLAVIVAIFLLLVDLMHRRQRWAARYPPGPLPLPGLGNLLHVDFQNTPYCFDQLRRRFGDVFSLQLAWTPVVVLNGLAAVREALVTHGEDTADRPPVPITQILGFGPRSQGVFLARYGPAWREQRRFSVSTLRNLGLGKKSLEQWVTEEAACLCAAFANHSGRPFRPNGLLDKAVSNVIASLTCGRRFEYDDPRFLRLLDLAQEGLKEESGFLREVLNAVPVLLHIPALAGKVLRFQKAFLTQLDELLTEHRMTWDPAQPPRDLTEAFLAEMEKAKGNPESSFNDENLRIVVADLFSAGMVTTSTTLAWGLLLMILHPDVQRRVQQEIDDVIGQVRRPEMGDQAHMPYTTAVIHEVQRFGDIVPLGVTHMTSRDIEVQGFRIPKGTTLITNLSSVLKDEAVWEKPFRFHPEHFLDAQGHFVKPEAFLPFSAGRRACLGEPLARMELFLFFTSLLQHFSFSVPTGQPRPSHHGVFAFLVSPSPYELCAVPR
Method in brief: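 P450-Glo CYP2D6 system: proluciferin substrate converted by enzyme to luciferin, read by luminescence proportional to activity. Enzyme-substrate mix with compound 10 min at room temperature, then NADPH regeneration 1 h before detection reagent.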

[2] = target: Cytochrome P450 2C9 (Homo sapiens) (UniProt P11712); assay: Cytochrome P450 family 2 subfamily C member 9 (CYP2C9) small molecule antagonists: luciferase biochemical (cell-free) qHTS assay (AID 1645842); conditions: P450-Glo CYP2C9 enzyme assay, luciferin luminescence; series mostly up to 57.4 µM; also: nearly all actives have a fitted effect of over 55% in size
Chain of UniProt P11712 (P11712 whole entry, looked up): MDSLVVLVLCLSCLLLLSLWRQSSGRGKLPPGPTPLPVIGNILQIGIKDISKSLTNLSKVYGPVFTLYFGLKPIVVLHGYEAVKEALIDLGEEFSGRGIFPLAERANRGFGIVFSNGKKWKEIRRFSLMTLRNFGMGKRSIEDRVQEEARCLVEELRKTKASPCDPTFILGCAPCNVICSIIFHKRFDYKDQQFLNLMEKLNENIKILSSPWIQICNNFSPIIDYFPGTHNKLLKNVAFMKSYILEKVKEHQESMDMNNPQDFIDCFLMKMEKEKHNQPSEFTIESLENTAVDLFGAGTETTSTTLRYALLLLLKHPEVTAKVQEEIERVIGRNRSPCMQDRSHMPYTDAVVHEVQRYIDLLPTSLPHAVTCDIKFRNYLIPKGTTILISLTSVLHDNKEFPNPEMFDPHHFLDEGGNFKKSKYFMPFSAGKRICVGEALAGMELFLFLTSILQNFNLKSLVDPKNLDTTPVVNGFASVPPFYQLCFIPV
Method in brief: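 P450-Glo CYP2C9 system: proluciferin substrate with enzyme in mix containing 0.4% BSA, 10 min at room temperature, then NADPH regeneration solution added and incubated 1 h at 37C. Detection reagent stopped reaction; luminescence read after 20 min as RLU.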

[3] = Primary qHTS for inhibitors of nuclear receptor binding SET domain protein 2 (NSD2) in an isogenic RCH-ACV NSD2 p.E1099K mutant (9B) (AID 1645876; active = well fitted curve in the direction sought with a large enough effect; inconclusive = small, poorly fitted or top-dose-only effect, or another doubt; inactive = no such curve, though single readings can be large; an effect the other way counts as inactive or inconclusive; also: nearly all actives have a fitted effect of over 70% in size); conditions: RCH-ACV NSD2 E1099K (9B) viability, CellTiter-Glo, 72 h; series mostly up to 44.9 µM
[4] = Primary qHTS for inhibitors of nuclear receptor binding SET domain protein 2 (NSD2) in an RCH-ACV wild type WT cells (2C) (AID 1645877; active = well fitted curve in the direction sought with a large enough effect; inconclusive = small, poorly fitted or top-dose-only effect, or another doubt; inactive = no such curve, though single readings can be large; an effect the other way counts as inactive or inconclusive; also: nearly all actives have a fitted effect of over 70% in size); conditions: RCH-ACV (leukaemia line) NSD2 WT (2C) viability, CellTiter-Glo, 72 h; series mostly up to 44.9 µM
[5] = target: Cytochrome P450 3A4 (Homo sapiens) (UniProt P08684); assay: Cytochrome P450 family 3 subfamily A member 4 (CYP3A4) small molecule antagonists: luciferase qHTS assay (AID 1645841); conditions: P450-Glo CYP3A4 enzyme assay, luciferin luminescence; series mostly up to 57.4 µM; also: nearly all actives have a fitted effect of over 45% in size
Chain of UniProt P08684 (P08684 whole entry, looked up): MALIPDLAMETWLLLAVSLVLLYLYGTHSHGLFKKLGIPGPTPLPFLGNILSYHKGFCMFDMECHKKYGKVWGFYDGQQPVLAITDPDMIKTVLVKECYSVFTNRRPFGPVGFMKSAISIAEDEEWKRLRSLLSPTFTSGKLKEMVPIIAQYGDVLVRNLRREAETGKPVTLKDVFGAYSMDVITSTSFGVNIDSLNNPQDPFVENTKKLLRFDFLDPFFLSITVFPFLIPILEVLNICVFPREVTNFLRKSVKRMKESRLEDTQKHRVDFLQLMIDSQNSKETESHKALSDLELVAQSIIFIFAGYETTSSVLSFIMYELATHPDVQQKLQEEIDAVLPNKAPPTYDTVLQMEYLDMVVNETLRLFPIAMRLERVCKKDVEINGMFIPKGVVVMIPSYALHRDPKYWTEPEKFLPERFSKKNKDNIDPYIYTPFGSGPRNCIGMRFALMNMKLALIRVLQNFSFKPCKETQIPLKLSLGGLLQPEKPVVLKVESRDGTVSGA
Method in brief: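 Luminescent CYP3A4 activity readout: compounds plus enzyme-substrate mix 10 min at room temperature, reaction started with NADPH regenerating system for 1 h, stopped with detection reagent, read after 20 min. Ketoconazole served as control.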
Potency is read from the fitted curve at half-maximal effect; tags tell the direction and shape of the fitted curve.

SMILES: CC(O)C(=O)O (stereo not drawn)
- Potency [1]: active: 12.3 µM

SMILES: N[C@H](Cc1c[nH]c2ccccc12)C(=O)O
- Potency [1]: inconclusive [inhibitor, single point]
- Potency [2]: inconclusive [inhibitor, single point]

SMILES: O=C(CCNNC(=O)c1ccncc1)NCc1ccccc1
- Potency [1]: active: 15.5 µM

SMILES: COC(=O)CCC[N+](C)(C)C
- Potency [1]: inactive

SMILES: CC(=O)Oc1ccc(C(c2ccc(OC(C)=O)cc2)c2ccccn2)cc1
- Potency [1]: active: 15.5 µM
- Potency [3]: inactive
- Potency [4]: inconclusive [inhibitor, partial curve]

SMILES: CNC(=O)c1ccccc1Nc1nc(Nc2ccc(N3CCOCC3)cc2OC)ncc1Cl
- Potency [1]: inconclusive [inhibitor, partial curve, poor fit]
- Potency [2]: active: 0.301 µM

SMILES: CCCC1O[C@@H]2C[C@H]3[C@@H]4CCC5=CC(=O)C=C[C@]5(C)[C@H]4[C@@H](O)C[C@]3(C)[C@]2(C(=O)CO)O1 (stereo partly drawn)
- Potency [1]: inconclusive [inhibitor, single point]
- Potency [2]: active: 15.1 µM

SMILES: CC(C(=O)O)c1ccc2c(c1)CC(=O)c1ccccc1S2 (stereo not drawn)
- Potency [1]: inconclusive [inhibitor, partial curve, poor fit]

SMILES: CC(=O)[C@H]1CC[C@H]2[C@@H]3C[C@H](C)C4=CC(=O)CC[C@]4(C)[C@H]3[C@@H](O)C[C@]12C
- Potency [1]: inconclusive [inhibitor, partial curve, poor fit]
- Potency [5]: inconclusive [falling, partial curve]
- Potency [3]: inconclusive [inhibitor, partial curve, poor fit]

SMILES: C=Cc1c(C)c2cc3nc(cc4[nH]c(cc5nc(cc1[nH]2)C(C)=C5CCC(=O)O)c(CCC(=O)OC)c4C)[C@@]1(C)C3=CC=C(C(=O)OC)[C@H]1C(=O)OC
- Potency [1]: inconclusive [inhibitor, partial curve]
- Potency [4]: inconclusive [inhibitor, partial curve]
